8 substances from paper PMC10518940 can be followed below.

The chains behind the UniProt entries cited, without tags or fusion partners.
UniProt P61073: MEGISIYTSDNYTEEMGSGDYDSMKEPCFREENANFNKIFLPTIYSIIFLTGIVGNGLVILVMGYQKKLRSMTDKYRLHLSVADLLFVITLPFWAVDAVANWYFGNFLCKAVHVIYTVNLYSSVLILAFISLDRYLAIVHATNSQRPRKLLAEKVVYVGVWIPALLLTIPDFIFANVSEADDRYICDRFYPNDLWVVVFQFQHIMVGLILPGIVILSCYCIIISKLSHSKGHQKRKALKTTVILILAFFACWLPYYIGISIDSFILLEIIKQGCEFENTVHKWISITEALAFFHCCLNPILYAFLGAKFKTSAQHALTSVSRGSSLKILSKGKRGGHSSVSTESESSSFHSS
UniProt P35372: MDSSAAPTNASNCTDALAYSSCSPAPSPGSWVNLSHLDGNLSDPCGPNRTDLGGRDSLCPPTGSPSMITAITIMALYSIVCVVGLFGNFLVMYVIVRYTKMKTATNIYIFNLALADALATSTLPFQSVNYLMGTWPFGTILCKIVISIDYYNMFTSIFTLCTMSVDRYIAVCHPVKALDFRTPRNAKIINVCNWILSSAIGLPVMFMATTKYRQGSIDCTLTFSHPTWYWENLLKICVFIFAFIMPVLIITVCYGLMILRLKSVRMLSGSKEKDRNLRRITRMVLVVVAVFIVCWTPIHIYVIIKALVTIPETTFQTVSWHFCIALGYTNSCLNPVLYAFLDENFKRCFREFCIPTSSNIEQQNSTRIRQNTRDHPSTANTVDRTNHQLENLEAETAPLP
UniProt Q92633: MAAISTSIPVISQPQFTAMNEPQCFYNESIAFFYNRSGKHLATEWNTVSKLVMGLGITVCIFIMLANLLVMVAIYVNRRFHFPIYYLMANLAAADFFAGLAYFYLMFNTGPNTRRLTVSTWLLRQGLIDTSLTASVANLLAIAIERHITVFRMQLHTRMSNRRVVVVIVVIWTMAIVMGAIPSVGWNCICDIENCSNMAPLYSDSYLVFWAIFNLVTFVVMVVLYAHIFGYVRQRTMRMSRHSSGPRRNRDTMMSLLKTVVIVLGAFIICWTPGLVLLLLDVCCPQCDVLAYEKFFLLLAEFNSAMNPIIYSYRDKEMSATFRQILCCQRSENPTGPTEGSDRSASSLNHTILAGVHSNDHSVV

No constants are given. Whether binding was seen depends on the method and setting. In cells and extracts the contact can be indirect. Some entries that bind do so weakly or less than the wild type.

The target in assay [1] is Flag-CXCR4-VC (human) (UniProt P61073). In words: split reporter; BiFC: HEK293A cells transfected with GPCR-VN and GPCR-VC at 1:1, fixed with 4% paraformaldehyde, reconstituted Venus imaged by confocal microscopy.
The target in assay [2] is CXCR4-VC (human) (UniProt P61073). Described as above.
Assay [3] has as its target Myc-CXCR4 (human) (UniProt P61073). In words: proximity ligation; PLA (NaveniFlex MR) on fixed transfected HEK293A cells with mouse anti-CXCR4 and rabbit anti-HA antibodies.
Assay [4] deals with Flag-CXCR4-VN (human) (UniProt P61073). In words: split reporter; BiFC: HEK293A cells transfected with GPCR-VN and GPCR-VC at 1:1, fixed with 4% paraformaldehyde, reconstituted Venus imaged by confocal microscopy.
The target in assay [5] is CXCR4 (adenoviral BiFC screen, VN or VC fusion) (human) (UniProt P61073). In words: split reporter; high-throughput adenovirus-based BiFC screen in U2-OS cells cotransduced with GPCRx-VN and GPCRy-VC; preliminary study, data not shown.
For assay [6], the target named is CXCR4-VN (human) (UniProt P61073). The experiment in a line: split reporter; BiFC: HEK293A cells transfected with GPCR-VN and GPCR-VC at 1:1, fixed with 4% paraformaldehyde, reconstituted Venus imaged by confocal microscopy.
Assay [7] has as its target CXCR4 (endogenous, MDA-MB-231 cells) (human (endogenous in MDA-MB-231)) (UniProt P61073). The experiment in a line: proximity ligation; PLA on fixed MDA-MB-231 cells (sgScramble control and LPAR1 knockout) with M1/M2 probe-conjugated anti-CXCR4 and mouse anti-LPA1 antibodies; endogenous receptors.

Regarding “HA-μOR-VN (from UniProt P35372 1-400) (receptor)”, in assay [1], the binding entry is on record as “no binding”.
“Flag-LPA1-VN (from UniProt Q92633 1-364) (receptor)”: the binding result in assay [2] is given as “binds”.
In the case of “HA-μOR (from UniProt P35372 1-400) (receptor)”, the binding result in assay [3] was “no binding”.
Consider “HA-μOR-VC (from UniProt P35372 1-400) (receptor)”, for which the binding entry in assay [4] was “no binding”.
For “LPA1 (adenoviral BiFC screen, VN or VC fusion) (from UniProt Q92633 1-364) (receptor)”, in assay [5], the binding result was “binds”.
In the case of “HA-LPA1 (from UniProt Q92633 1-364) (receptor)”, in assay [3], the binding entry was “binds”.
Take “Flag-LPA1-VC (from UniProt Q92633 1-364) (receptor)”: the binding entry in assay [6] was “binds”.
As to “LPA1 (endogenous, MDA-MB-231 cells) (from UniProt Q92633 1-364) (receptor)”, in assay [7], the binding entry is “binds”.
